Measurements reported in PubChem BioAssay AID894 (National Center for Advancing Translational Sciences (NCATS), 2007).
In all, about 150,000 compounds went through this assay and about 6,500 (4.3%) were called active. The inconclusive results got no clear call from the source; some entries with a clear call stand among them for comparison. Calls come from the whole dose curve; as a rule, active = well fitted inhibition curve with a large enough effect (not every such curve was filed as active); inconclusive = small, poorly fitted or top-dose-only effect, or another doubt; inactive = no such curve, though single readings can be large or run the other way. No potency is given beside an inconclusive call; the fits are too rough.

Target: 15-hydroxyprostaglandin dehydrogenase [NAD(+)] (Homo sapiens) (UniProt P15428)
Experiment: qHTS Assay for Inhibitors of HPGD (15-Hydroxyprostaglandin Dehydrogenase)
Conditions: purified HPGD, NADH fluorescence kinetic, PGE2 substrate; activity change, negative = inhibition: stronger effect = lower value
Source text: Human 15-Hydroxyprostaglandin dehydrogenase (HPGD) catalyzes the inactivation of prostaglandin E2, and plays a major role in cancer biology by antagonizing the oncogenic potential of cyclooxygenase type 2 (COX2). Assays are available, based on absorbance/fluorescence increase of NADH with the substrate 15-OH prostaglandin E2. References 1. Myung SJ, Rerko RM, Yan M, Platzer P, Guda K, Dotson A, Lawrence E, Dannenberg AJ, Lovgren AK, Luo G, Pretlow TP, Newman RA, Willis J, Dawson D, Markowitz SD. 15-Hydroxyprostaglandin dehydrogenase is an in vivo suppressor of colon tumorigenesis. […] 2. Yan M, Rerko RM, Platzer P, Dawson D, Willis J, Tong M, Lawrence E, Lutterbaugh J, Lu S, Willson JK, Luo G, Hensold J, Tai HH, Wilson K, Markowitz SD. 15-Hydroxyprostaglandin dehydrogenase, a COX-2 oncogene antagonist, is a TGF-beta-induced suppressor of human gastrointestinal cancers. Proc Natl Acad Sci U S A. 2004 Dec 14;101(50):17468-73. 3. Yang L, Amann JM, Kikuchi T, Porta R, Guix M, Gonzalez A, Park KH, Billheimer D, Arteaga CL, Tai HH, Dubois R, Carbone DP, Johnson DH. Inhibition of Epidermal Growth Factor Receptor Signaling Elevates 15-Hydroxyprostaglandin Dehydrogenase in Non-Small-Cell Lung Cancer. Cancer Res. 2007 Jun 15;67(12):5587-5593. Inhibition of HPGD activity was screened by utilizing prostaglandin as an electron donor and NAD+ as an electron acceptor/cofactor. An increase in the fluorescence intensity due to conversion of NAD+ to NADH was used to measure the enzyme activity. NIH Chemical Genomics Center [NCGC] Structural Genomics Consortium [SGC]
Buffer: 50 mM Tris-HCl, 0.01% Tween 20, pH 8. Enzyme Buffer: 50 mM Tris-HCl, 0.5 mM NAD+ and 0.01% Tween 20, pH 8. Reagents/Controls: Buffer in columns 3 and 4 as negative control (no enzyme). Substrate/cofactor solution: 1 mM NAD+ and 30 uM prostaglandin (Sigma, prostaglandin E2, # P5640) final concentrations dispensed throughout the plate. Enzyme: 20 nM HPGD final concentration in columns 1, 2, 5-48. Column 1 and 2 is neutral (100% activity). A titration of control inhibitor GW5074 (G6416 Sigma-Aldrich, St. Louis, MO) top concentration 10 mM in DMSO, then 1:2 dilution for a total of 16 concentrations in duplicate) was pin-transferred into column 2. Assay Steps: Three uL of enzyme were dispensed to 1536-well Greiner black solid bottom plates. Compounds and control inhibitor (23 nL) were transferred via Kalypsys PinTool. The plates were incubated for 15 min at room temperature, and then 1 uL of substrate/cofactor solution was added to start the reaction. The plates were immediately transferred to and read 5 times every 30 seconds on ViewLux High-throughput CCD imager (Perkin-Elmer) using 360 nm excitation and 450 nm emission fluorescence protocol. The fluorescence intensity difference between the last and the first time points was used to compute reaction progress.
% is set by controls: 0 for no effect and ±100 for the full control effect; potency is the fitted concentration of half-maximal effect; tags give direction and shape of the fitted curve.

UniProt P15428, sequence (P15428 whole entry, looked up): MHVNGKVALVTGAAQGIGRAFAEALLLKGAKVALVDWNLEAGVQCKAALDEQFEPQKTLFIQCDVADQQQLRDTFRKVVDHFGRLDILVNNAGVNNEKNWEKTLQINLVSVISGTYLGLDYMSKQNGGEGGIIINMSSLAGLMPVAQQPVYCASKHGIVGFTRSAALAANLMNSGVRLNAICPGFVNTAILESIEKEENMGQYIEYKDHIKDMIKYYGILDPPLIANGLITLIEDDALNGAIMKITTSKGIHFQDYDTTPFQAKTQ

| SMILES | Potency | activity change, negative = inhibition |
| --- | --- | --- |
| O=C(O)c1cc2ccc3ccccc3c2[nH]1 | inconclusive [inhibitor, partial curve] | – |
| COc1cccc(NC(=S)NNC(=O)c2ccccc2OC(F)F)c1 | inconclusive [inhibitor, single point] | – |
| c1cc(Nc2ncnc3sccc23)cc(-c2nnc3n2CCCCC3)c1 | active: 22.4 µM | – |
| CCOC(=O)c1cc(-c2ccccc2)sc1NC(=O)c1cc(OC)c(OC)c(OC)c1 | inconclusive [inhibitor, partial curve] | – |
| O=C(/C=C/c1ccco1)Nc1cc(Cl)ccc1C(=O)O | active: 31.6 µM | – |
| CC1CN(C(=S)SCC(=O)c2ccccc2)CC(C)O1 (stereo not drawn) | – | inactive: -10.1% |
| COC(=O)c1ccc(NC(=O)C2CCCO2)cc1 (stereo not drawn) | inconclusive [inhibitor, partial curve] | – |
| COCc1nc2ccccc2n1CCCOc1ccccc1 | – | inactive: -11.2% |
| Cc1cccc(N2CCN(C(=O)C3CCCCC3)CC2)c1C | – | inactive: -14.3% |
| COc1cccc(C2=CC(c3ccc(OC)c(OC)c3OC)n3nnnc3N2)c1 (stereo not drawn) | inconclusive [inhibitor, single point] | – |
| CCN(CC)C(=O)c1sc(NC(=O)c2ccc(Br)o2)c(C(=O)OC)c1C | active: 15.8 µM | – |
| COC(=O)c1ccc(C(NC(=O)OCc2ccccc2)/C(F)=C/[C@@H](C)C(=O)N(C)Cc2cccnc2)cc1 (stereo partly drawn) | – | inactive: -11.3% |
| CCOc1cc(S(=O)(=O)NCCc2cccc(C)c2)c(OCC)cc1-n1cnnn1 | inconclusive [inhibitor, partial curve] | – |
| COCCOc1cc(Nc2nnc(C(F)(F)F)s2)c(Cl)cc1Cl | inconclusive [inhibitor, partial curve] | – |
| CS(=O)(=O)Nc1cccc(-c2nc(NCc3cccs3)c3ccccc3n2)c1 | inconclusive [inhibitor, partial curve] | – |
| Cc1nn2c([nH]c(=O)c3ccccc32)c1C=O | active: 15.8 µM | – |
| N#C/C(=C\c1ccc(Cl)cc1Cl)c1n[nH]c(Cn2cncn2)n1 | inconclusive [inhibitor, partial curve] | – |
| COc1cc(C=O)ccc1OCCSc1ccc(C)cc1 | active: 17.8 µM | – |
| CC(=O)N[C@@H](Cc1ccc(O)cc1)C(=O)O | – | inactive: 0.941% |
| Cc1cccc(NC(=O)/C(=C\c2cccs2)NC(=O)c2ccccc2)c1 | inconclusive [inhibitor, partial curve] | – |
| Cc1noc(C)c1C(=O)OCC(=O)c1c(N)n(CC(C)C)c(=O)n(C)c1=O | – | inactive: -8.77% |
| CCc1nc(NC(C)C)c2oc3ccccc3c2n1 | – | inactive: -12.7% |
| C/C(=N\NC(=O)C1(C)CC1(Br)Br)c1ccc(NC(=O)C2CCC2)cc1 (stereo not drawn) | – | inactive: -7.92% |
| COc1ccc(/C=C/C(=O)OCC(=O)NCc2ccco2)cc1OC | inconclusive [inhibitor, partial curve, poor fit] | – |

| SMILES | Potency | activity change, negative = inhibition |
| --- | --- | --- |
| CCOC(=O)c1sc(NC(=O)c2ccc(C)o2)nc1C | active: 20 µM | – |
| CCOC(=O)c1cc(-c2ccncc2)nc2c1c(C)nn2C | inconclusive [inhibitor, partial curve] | – |
| Nc1c(S(=O)(=O)c2cccs2)c2nc3ccccc3nc2n1Cc1cccs1 | inconclusive [inhibitor, partial curve] | – |
| Cn1c(C(=O)NCc2cccs2)cc2c(=O)n(C)c3ccccc3c21 | inconclusive [inhibitor, partial curve] | – |
| N#CC(c1ccc(F)cc1)c1ccc(C(=O)c2ccccc2)cc1 (stereo not drawn) | active: 14.1 µM | – |
| Cc1ccc(C(=O)OCc2nnc(-c3ccccc3)o2)o1 | active: 7.08 µM | – |
| CC(=O)Nc1ccc2c(c1)C(=O)N(C1CCCCC1)C2=O | inconclusive [inhibitor, partial curve] | – |
| CCS(=O)(=O)N1N=C(c2ccc(NS(C)(=O)=O)cc2)CC1c1ccccc1 (stereo not drawn) | inconclusive [inhibitor, partial curve] | – |
| Cc1ccccc1-c1cncnc1Nc1ccc(F)cc1 | inconclusive [inhibitor, partial curve] | – |
| Cc1ccc2[nH]c3c(c2c1)CCCC3=O | inconclusive [inhibitor, partial curve] | – |
| O=c1[nH]c2ccc(S(=O)(=O)Nc3ccc(-c4nnc5n4CCCCC5)cc3)cc2o1 | active: 0.199 µM | – |
| CCOC(=O)c1cnn(-c2ccccc2)c1-n1cccc1C(=O)C(=O)Nc1ccccc1 | – | inactive: -18.1% |
| O=C(NCc1cccs1)c1ccc(N2CCCCC2)nc1 | active: 15.8 µM | – |
| COc1cc2oc(=O)cc(-c3ccc(-c4ccc(CO)cc4)cc3)c2c(OC)c1OC | inconclusive [inhibitor, partial curve] | – |
| N/C(=N\OC(=O)c1cccc(Br)c1)c1ccccc1 | inconclusive [inhibitor, single point] | – |
| CC1(C)CCC=[N+]1[O-] | – | inactive: -12.5% |
| O=C(Nc1cccc(Cl)c1N1CCCC1)c1cc2ccccc2o1 | inconclusive [inhibitor, partial curve] | – |
| Cc1cc(C)n2ncc(C(=O)NCc3cccnc3)c2n1 | inconclusive [inhibitor, partial curve] | – |
| COc1cccc(-c2cncnc2-n2ccnc2)c1 | inconclusive [inhibitor, partial curve] | – |
| O=C(Nc1cc(C(F)(F)F)ccc1N1CCOCC1)c1cn2ccccc2n1 | inconclusive [inhibitor, partial curve] | – |
| CCC(=O)c1ccc(OCCSc2ncccn2)cc1 | active: 31.6 µM | – |
| COc1ccc2oc(C(F)(F)C(F)(F)F)cc(=O)c2c1 | inconclusive [inhibitor, partial curve] | – |
| Cc1ccc(SCc2[nH]nc3c2C(c2ccco2)C(C#N)=C(N)O3)cc1 (stereo not drawn) | inconclusive [inhibitor, single point] | – |
| CCC(=O)N(Cc1cc2cc(OC)ccc2[nH]c1=O)c1ccccc1C | inconclusive [inhibitor, partial curve] | – |
